The values that follow come from PubChem BioAssay (NCI).

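Grown in 96-well plates, cells were treated for 48 hours with each compound at five concentrations. Insufficient inhibition: endpoint recorded as highest concentration tested. GI50 is the concentration that inhibits growth by half. Definition used: TGI = concentration required for complete inhibition of growth.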

This experiment has as its system NCI-H322M lung. Put plainly: NCI-60 cell line screen, 48 h.
Consider `Cc1ccc(/C=C/C(=O)c2ccc(S(=O)(=O)NCCNc3nc(Nc4ccc(F)cc4)nc(N(C)C)n3)cc2)cc1`, for which the GI50 is 11.8 µM and the TGI was determined as 27.1 µM.

For `O=C(c1ccc(Cl)cc1)C1[C@H](c2ccccc2Cl)[C@@H](c2ccccc2)NC12C(=O)Nc1ccccc12` (stereo partly specified), the GI50 is 25.5 µM and the TGI is more than 100 µM.

Take `COc1ccc(NC(=O)Nc2nc3ccc([N+](=O)[O-])cc3s2)cc1`: the GI50 is 2.81 µM and the TGI was 8.21 µM.
